For two molecules, binding results are on record in paper PMC3291536.

Protein sequences, listed by entry. Tags and fused reporters are not part of them.
UniProt Q8VIG1: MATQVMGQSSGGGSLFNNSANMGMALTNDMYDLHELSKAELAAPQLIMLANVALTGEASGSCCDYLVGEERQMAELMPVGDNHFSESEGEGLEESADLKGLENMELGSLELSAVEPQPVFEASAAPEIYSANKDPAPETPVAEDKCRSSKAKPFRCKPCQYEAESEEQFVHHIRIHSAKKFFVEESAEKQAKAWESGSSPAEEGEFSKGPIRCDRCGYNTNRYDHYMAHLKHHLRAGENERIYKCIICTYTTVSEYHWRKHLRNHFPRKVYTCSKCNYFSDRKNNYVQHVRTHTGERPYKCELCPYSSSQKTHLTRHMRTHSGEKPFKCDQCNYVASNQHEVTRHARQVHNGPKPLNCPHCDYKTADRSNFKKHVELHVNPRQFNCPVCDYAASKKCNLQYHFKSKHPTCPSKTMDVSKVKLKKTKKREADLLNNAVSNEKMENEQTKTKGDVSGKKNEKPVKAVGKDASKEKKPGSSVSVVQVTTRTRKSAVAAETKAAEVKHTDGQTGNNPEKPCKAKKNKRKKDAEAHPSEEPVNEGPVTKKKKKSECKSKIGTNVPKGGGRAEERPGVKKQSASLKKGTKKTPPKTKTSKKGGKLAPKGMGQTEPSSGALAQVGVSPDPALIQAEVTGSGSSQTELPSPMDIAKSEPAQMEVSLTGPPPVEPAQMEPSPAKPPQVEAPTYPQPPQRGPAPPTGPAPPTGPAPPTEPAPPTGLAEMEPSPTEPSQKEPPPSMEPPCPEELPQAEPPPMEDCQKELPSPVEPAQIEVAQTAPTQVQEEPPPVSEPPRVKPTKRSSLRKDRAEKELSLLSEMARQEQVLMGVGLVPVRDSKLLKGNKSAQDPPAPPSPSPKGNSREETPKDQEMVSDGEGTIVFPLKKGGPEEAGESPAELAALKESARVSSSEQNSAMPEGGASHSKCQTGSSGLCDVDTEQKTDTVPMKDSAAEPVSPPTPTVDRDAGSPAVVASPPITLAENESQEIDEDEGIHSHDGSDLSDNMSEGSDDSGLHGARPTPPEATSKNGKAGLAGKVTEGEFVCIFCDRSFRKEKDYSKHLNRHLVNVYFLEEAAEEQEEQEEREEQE
UniProt Q13127: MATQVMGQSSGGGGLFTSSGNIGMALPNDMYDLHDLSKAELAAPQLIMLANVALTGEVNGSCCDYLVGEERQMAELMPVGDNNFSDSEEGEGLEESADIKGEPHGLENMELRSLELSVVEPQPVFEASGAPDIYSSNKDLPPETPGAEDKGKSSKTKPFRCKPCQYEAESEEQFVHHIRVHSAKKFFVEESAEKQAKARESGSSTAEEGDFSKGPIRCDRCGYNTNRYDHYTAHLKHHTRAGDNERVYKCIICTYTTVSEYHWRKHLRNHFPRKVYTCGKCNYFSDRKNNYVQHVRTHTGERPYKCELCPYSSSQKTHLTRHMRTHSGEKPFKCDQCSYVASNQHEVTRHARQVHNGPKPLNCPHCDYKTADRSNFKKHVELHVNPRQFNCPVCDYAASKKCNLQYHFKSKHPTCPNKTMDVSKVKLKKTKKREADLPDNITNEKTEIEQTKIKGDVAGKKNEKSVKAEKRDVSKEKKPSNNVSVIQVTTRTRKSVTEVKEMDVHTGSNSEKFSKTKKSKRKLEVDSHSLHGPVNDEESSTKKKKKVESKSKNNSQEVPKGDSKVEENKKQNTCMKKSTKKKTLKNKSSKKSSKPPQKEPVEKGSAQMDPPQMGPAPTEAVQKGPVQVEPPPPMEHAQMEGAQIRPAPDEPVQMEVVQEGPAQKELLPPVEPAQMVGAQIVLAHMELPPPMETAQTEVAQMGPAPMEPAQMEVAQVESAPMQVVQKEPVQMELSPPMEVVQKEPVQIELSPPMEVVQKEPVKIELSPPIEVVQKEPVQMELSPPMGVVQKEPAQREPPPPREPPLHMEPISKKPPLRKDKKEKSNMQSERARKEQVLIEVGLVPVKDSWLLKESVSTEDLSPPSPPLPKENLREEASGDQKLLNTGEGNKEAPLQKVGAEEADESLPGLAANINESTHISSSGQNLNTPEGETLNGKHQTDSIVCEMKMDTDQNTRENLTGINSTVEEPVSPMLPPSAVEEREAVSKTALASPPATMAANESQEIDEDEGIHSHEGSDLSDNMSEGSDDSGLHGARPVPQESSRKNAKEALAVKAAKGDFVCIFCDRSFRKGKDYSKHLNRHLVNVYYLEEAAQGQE

These are yes or no findings as the source states them, for the method shown. Binding seen in cells or lysates may run through a third protein. Some entries that bind do so weakly or less than the wild type.

Assay [1] addresses Rest (mouse) (mouse (endogenous in mES cells)) (UniProt Q8VIG1). Nature of the assay: co-IP; anti-Rest or control IgG on pooled size-exclusion fractions (1: F8–10; 2: F11–13; 3: F22) of nuclear extracts from Wt, Eed−/− or Rnf2−/− mES cells; Western blotting.
Assay [2] deals with REST (Neuron-Restrictive Silencing Factor) (human (endogenous in NT2-D1 and HEK293)) (UniProt Q13127). Nature of the assay: co-IP; anti-REST or control IgG cross-linked to protein A-Sepharose; pooled Superose 6 fractions of NT2-D1 nuclear extract (pool 1: F7–9; pool 2: F11–13; pool 3: F21–22); Western blotting.

B1: Nspc1 (mouse) (protein, UniProt Q8R023 1-259)
chain: MASPQGGQIAIAMRLRNQLQSVYKMDPLRNEEEVRVKIKDLNEHIVCCLCAGYFVDATTITECLHTFCKSCIVKYLQTSKYCPMCNIKIHETQPLLNLKLDRVMQDIVYKLVPGLQDSEEKRIREFYQSRGLDRVSQPSGEEPALSNLGLPFSSFDHSKAHYYRYDEQLSLCLERLSSGKDKNKNVLQNKYVRCSVRAEVRHLRRVLCHRLMLNPQHVQLLFDNEVLPDHMTMKQLWLSRWFGKPSPLLLQYSVKEKRR
B1: the binding entry in assay [1] is “binds”.

B2: CBX8 (protein, UniProt Q9HC52 1-389)
chain: MELSAVGERVFAAEALLKRRIRKGRMEYLVKWKGWSQKYSTWEPEENILDARLLAAFEEREREMELYGPKKRGPKPKTFLLKAQAKAKAKTYEFRSDSARGIRIPYPGRSPQDLASTSRAREGLRNMGLSPPASSTSTSSTCRAEAPRDRDRDRDRDRERDRERERERERERERERERERGTSRVDDKPSSPGDSSKKRGPKPRKELPDPSQRPLGEPSAGLGEYLKGRKLDDTPSGAGKFPAGHSVIQLARRQDSDLVQCGVTSPSSAEATGKLAVDTFPARVIKHRAAFLEAKGQGALDPNGTRVRHGSGPPSSGGGLYRDMGAQGGRPSLIARIPVARILGDPEEESWSPSLTNLEKVVVTDVTSNFLTVTIKESNTDQGFFKEKR
As to B2, the binding entry in assay [2] is listed as “binds”.
